This is one part of the list.
How the values were obtained:
Test in all cases: glycan array binding signal (z-score within array); higher = stronger binding
Conditions in all cases: glycan notation: IUPAC condensed, linker removed
[1] = target: Fuc(a1-2)Gal
Outline: (§1)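 Glycan array binding is given as a within-array Z-score, which can be read as non-binding when negative. The arrays, 3228 of them, came from the Consortium for Functional Glycomics database and were retained only where the protein sequence was available. Z-scores were averaged across arrays of the same protein sequence at different concentrations or buffers and across linkers.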

[2] = target: Fuc(a1-2)Gal(b1-3)GalNAc
Outline: as §1

[3] = target: Fuc(a1-2)Gal(b1-3)GalNAc(a1-3)[Fuc(a1-2)]Gal(b1-4)Glc
Outline: as §1

[4] = target: Fuc(a1-2)Gal(b1-3)GalNAc(a1-3)[Fuc(a1-2)]Gal(b1-4)GlcNAc
Outline: as §1

[5] = target: Fuc(a1-2)Gal(b1-3)GalNAc(b1-3)Gal
Outline: as §1

[6] = target: Fuc(a1-2)Gal(b1-3)GalNAc(b1-3)Gal(a1-4)Gal(b1-4)Glc
Outline: as §1

[7] = target: Fuc(a1-2)Gal(b1-3)GalNAc(b1-4)[Neu5Ac(a2-3)]Gal(b1-4)Glc
Outline: as §1

[8] = target: Fuc(a1-2)Gal(b1-3)GlcNAc
Outline: as §1

[9] = target: Fuc(a1-2)Gal(b1-3)GlcNAc(b1-2)Man(a1-3)[Fuc(a1-2)Gal(b1-3)GlcNAc(b1-2)Man(a1-6)]Man(b1-4)GlcNAc(b1-4)GlcNAc
Outline: as §1

[10] = target: Fuc(a1-2)Gal(b1-3)GlcNAc(b1-2)Man(a1-3)[Fuc(a1-2)Gal(b1-3)GlcNAc(b1-2)Man(a1-6)]Man(b1-4)GlcNAc(b1-4)[Fuc(a1-6)]GlcNAc
Outline: as §1

[11] = target: Fuc(a1-2)Gal(b1-3)GlcNAc(b1-3)Gal(b1-4)Glc
Outline: as §1

[12] = target: Fuc(a1-2)Gal(b1-3)GlcNAc(b1-3)GalNAc
Outline: as §1

[13] = target: Fuc(a1-2)Gal(b1-3)GlcNAc(b1-3)[Fuc(a1-2)Gal(b1-3)GlcNAc(b1-6)]GalNAc
Outline: as §1

[14] = target: Fuc(a1-2)Gal(b1-3)GlcNAc(b1-3)[Gal(b1-4)GlcNAc(b1-6)]Gal(b1-4)Glc
Outline: as §1

[15] = target: Fuc(a1-2)Gal(b1-3)GlcNAc(b1-3)[Neu5Ac(a2-6)Gal(b1-4)GlcNAc(b1-6)]Gal(b1-4)Glc
Outline: as §1

[16] = target: Fuc(a1-2)Gal(b1-3)GlcNAc6S
Outline: as §1

[17] = target: Fuc(a1-2)Gal(b1-3)[Fuc(a1-4)]GlcNAc
Outline: as §1

[18] = target: Fuc(a1-2)Gal(b1-3)[Fuc(a1-4)]GlcNAc(b1-2)Man(a1-3)[Fuc(a1-2)Gal(b1-3)[Fuc(a1-4)]GlcNAc(b1-2)Man(a1-3)]Man(b1-4)GlcNAc(b1-4)GlcNAc
Outline: as §1

[19] = target: Fuc(a1-2)Gal(b1-3)[Fuc(a1-4)]GlcNAc(b1-2)Man(a1-3)[Fuc(a1-2)Gal(b1-3)[Fuc(a1-4)]GlcNAc(b1-2)Man(a1-6)]Man(b1-4)GlcNAc(b1-4)[Fuc(a1-6)]GlcNAc(b1-4)[Fuc(a1-6)]GlcNAc
Outline: as §1

[20] = target: Fuc(a1-2)Gal(b1-3)[Fuc(a1-4)]GlcNAc(b1-3)[Fuc(a1-3)[Gal(b1-4)]GlcNAc(b1-6)]Gal(b1-4)Glc
Outline: as §1

[21] = target: Fuc(a1-2)Gal(b1-3)[Fuc(a1-4)]GlcNAc(b1-3)[Gal(b1-4)GlcNAc(b1-6)]Gal(b1-4)Glc
Outline: as §1

[22] = target: Fuc(a1-2)Gal(b1-4)Fuc(a1-3)]GlcNAc(b1-2)Man(a1-3)[Fuc(a1-2)Gal(b1-4)[Fuc(a1-3)]GlcNAc(b1-2)Man(a1-6)]Man(b1-4)GlcNAc(b1-4)GlcNAc
Outline: as §1

[23] = target: Fuc(a1-2)Gal(b1-4)Glc
Outline: as §1

[24] = target: Fuc(a1-2)Gal(b1-4)Glc6S
Outline: as §1

[25] = target: Fuc(a1-2)Gal(b1-4)GlcNAc
Outline: as §1

[26] = target: Fuc(a1-2)Gal(b1-4)GlcNAc(b1-2)Man
Outline: as §1

[27] = target: Fuc(a1-2)Gal(b1-4)GlcNAc(b1-2)Man(a1-3)[Fuc(a1-2)Gal(b1-4)GlcNAc(b1-2)Man(a1-6)]Man(b1-4)GlcNAc(b1-4)GlcNAc
Outline: as §1

[28] = target: Fuc(a1-2)Gal(b1-4)GlcNAc(b1-2)Man(a1-3)[Fuc(a1-2)Gal(b1-4)GlcNAc(b1-2)Man(a1-6)]Man(b1-4)GlcNAc(b1-4)[Fuc(a1-6)]GlcNAc
Outline: as §1

[29] = target: Fuc(a1-2)Gal(b1-4)GlcNAc(b1-2)[Fuc(a1-2)Gal(b1-4)GlcNAc(b1-4)]Man(a1-3)[Fuc(a1-2)Gal(b1-4)GlcNAc(b1-2)Man(a1-6)]Man(b1-4)GlcNAc(b1-4)GlcNAc
Outline: as §1

[30] = target: Fuc(a1-2)Gal(b1-4)GlcNAc(b1-3)Gal(b1-4)GlcNAc
Outline: as §1

[31] = target: Fuc(a1-2)Gal(b1-4)GlcNAc(b1-3)Gal(b1-4)GlcNAc(b1-2)Man(a1-3)[Fuc(a1-2)Gal(b1-4)GlcNAc(b1-3)Gal(b1-4)GlcNAc(b1-2)Man(a1-6)]Man(b1-4)GlcNAc(b1-4)GlcNAc
Outline: as §1

[32] = target: Fuc(a1-2)Gal(b1-4)GlcNAc(b1-3)Gal(b1-4)GlcNAc(b1-3)Gal(b1-4)GlcNAc
Outline: as §1

[33] = target: Fuc(a1-2)Gal(b1-4)GlcNAc(b1-3)GalNAc
Outline: as §1

[34] = target: Fuc(a1-2)Gal(b1-4)GlcNAc(b1-3)[Fuc(a1-2)Gal(b1-4)GlcNAc(b1-6)]GalNAc
Outline: as §1

[35] = target: Fuc(a1-2)Gal(b1-4)GlcNAc(b1-3)[Fuc(a1-3)[Gal(b1-4)]GlcNAc(b1-6)]Gal(b1-4)Glc
Outline: as §1

[36] = target: Fuc(a1-2)Gal(b1-4)GlcNAc(b1-6)GalNAc
Outline: as §1

[37] = target: Fuc(a1-2)Gal(b1-4)GlcNAc6S
Outline: as §1

[38] = target: Fuc(a1-2)Gal(b1-4)[Fuc(a1-3)]GlcNAc
Outline: as §1

[39] = target: Fuc(a1-2)Gal(b1-4)[Fuc(a1-3)]GlcNAc(b1-2)Man(a1-3)[Fuc(a1-2)Gal(b1-4)[Fuc(a1-3)]GlcNAc(b1-2)Man(a1-6)]Man(b1-4)GlcNAc(b1-4)[Fuc(a1-6)]GlcNAc
Outline: as §1

[40] = target: Fuc(a1-2)Gal(b1-4)[Fuc(a1-3)]GlcNAc(b1-2)[Fuc(a1-2)Gal(b1-4)[Fuc(a1-3)]GlcNAc(b1-4)]Man(a1-3)[Fuc(a1-2)Gal(b1-4)[Fuc(a1-3)]GlcNAc(b1-2)Man(a1-6)]Man(b1-4)GlcNAc(b1-4)GlcNAc
Outline: as §1

[41] = target: Fuc(a1-2)Gal(b1-4)[Fuc(a1-3)]GlcNAc(b1-3)Gal(b1-4)[Fuc(a1-3)]GlcNAc
Outline: as §1

[42] = target: Fuc(a1-2)Gal(b1-4)[Fuc(a1-3)]GlcNAc(b1-3)Gal(b1-4)[Fuc(a1-3)]GlcNAc(b1-3)Gal(b1-4)[Fuc(a1-3)]GlcNAc
Outline: as §1

[43] = target: Fuc(a1-2)Gal(b1-4)[Fuc(a1-3)]GlcNAc(b1-3)GalNAc
Outline: as §1

[44] = target: Fuc(a1-2)Gal(b1-4)[Fuc(a1-3)]GlcNAc(b1-3)[Neu5Ac(a2-6)Gal(b1-4)GlcNAc(b1-6)]Gal(b1-4)Glc
Outline: as §1

[45] = target: Fuc(a1-2)Gal3S(b1-4)GlcNAc
Outline: as §1

B1: HBHA-Rv (Mycobacterium tuberculosum), P0A5P6 (protein)
chain: MAENSNIDDIKAPLLAALGAADLALATVNELITNLRERAEETRTDTRSRVEESRARLTKLQEDLPEQLTELREKFTAEELRKAAEGYLEAATSRYNELVERGEAALERLRSQQSFEEVSARAEGYVDQAVELTQEALGTVASQTRAVGERAAKLVGIELPKKAAPAKKAAPAKKAAPAKKAAAKKAPAKKAAAKKVTQK
Q: Which results are given for B1?
A: glycan array binding signal (z-score) [1]: 0.953; glycan array binding signal (z-score) [2]: 0.448; glycan array binding signal (z-score) [3]: -0.113; glycan array binding signal (z-score) [4]: -0.332; glycan array binding signal (z-score) [5]: -0.092; glycan array binding signal (z-score) [6]: -0.064; glycan array binding signal (z-score) [7]: 0.114; glycan array binding signal (z-score) [8]: 0.221; glycan array binding signal (z-score) [9]: -0.429; glycan array binding signal (z-score) [10]: -0.319; glycan array binding signal (z-score) [11]: 0.242; glycan array binding signal (z-score) [12]: -0.351; glycan array binding signal (z-score) [13]: -0.45; glycan array binding signal (z-score) [14]: -0.453; glycan array binding signal (z-score) [15]: 0.025; glycan array binding signal (z-score) [16]: -0.269; glycan array binding signal (z-score) [17]: -0.401; glycan array binding signal (z-score) [18]: -0.206; glycan array binding signal (z-score) [19]: 0.157; glycan array binding signal (z-score) [20]: -0.277; glycan array binding signal (z-score) [21]: -0.426; glycan array binding signal (z-score) [22]: -0.262; glycan array binding signal (z-score) [23]: -0.208; glycan array binding signal (z-score) [24]: -0.121; glycan array binding signal (z-score) [25]: 0.109; glycan array binding signal (z-score) [26]: -0.196; glycan array binding signal (z-score) [27]: -0.367; glycan array binding signal (z-score) [28]: -0.419; glycan array binding signal (z-score) [29]: -0.447; glycan array binding signal (z-score) [30]: -0.394; glycan array binding signal (z-score) [31]: 1.25; glycan array binding signal (z-score) [32]: 0.078; glycan array binding signal (z-score) [33]: -0.231; glycan array binding signal (z-score) [34]: 0.505; glycan array binding signal (z-score) [35]: -0.392; glycan array binding signal (z-score) [36]: -0.294; glycan array binding signal (z-score) [37]: 0.833; glycan array binding signal (z-score) [38]: -0.082; glycan array binding signal (z-score) [39]: 0.771; glycan array binding signal (z-score) [40]: -0.327; glycan array binding signal (z-score) [41]: -0.163; glycan array binding signal (z-score) [42]: -0.286; glycan array binding signal (z-score) [43]: -0.275; glycan array binding signal (z-score) [44]: -0.227; glycan array binding signal (z-score) [45]: -0.246
